Laboratory results as given in article PMC4336329 (PLoS ONE, 2015).
About 14,000 (4.5%) of roughly 310,000 compounds showed an effect of 50% or more. The effect is printed as a negative number. Some of the results follow.

Biological target: human ether-à-go-go-related gene (hERG) potassium channel (human, UniProt Q12809)
Experiment: primary screen, population patch clamp on CHO cells stably expressing hERG
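Note: peak tail current of the secondary pulse compared with the same well before compound.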

human ether-à-go-go-related gene (hERG) potassium channel, sequence (Q12809 whole entry, looked up): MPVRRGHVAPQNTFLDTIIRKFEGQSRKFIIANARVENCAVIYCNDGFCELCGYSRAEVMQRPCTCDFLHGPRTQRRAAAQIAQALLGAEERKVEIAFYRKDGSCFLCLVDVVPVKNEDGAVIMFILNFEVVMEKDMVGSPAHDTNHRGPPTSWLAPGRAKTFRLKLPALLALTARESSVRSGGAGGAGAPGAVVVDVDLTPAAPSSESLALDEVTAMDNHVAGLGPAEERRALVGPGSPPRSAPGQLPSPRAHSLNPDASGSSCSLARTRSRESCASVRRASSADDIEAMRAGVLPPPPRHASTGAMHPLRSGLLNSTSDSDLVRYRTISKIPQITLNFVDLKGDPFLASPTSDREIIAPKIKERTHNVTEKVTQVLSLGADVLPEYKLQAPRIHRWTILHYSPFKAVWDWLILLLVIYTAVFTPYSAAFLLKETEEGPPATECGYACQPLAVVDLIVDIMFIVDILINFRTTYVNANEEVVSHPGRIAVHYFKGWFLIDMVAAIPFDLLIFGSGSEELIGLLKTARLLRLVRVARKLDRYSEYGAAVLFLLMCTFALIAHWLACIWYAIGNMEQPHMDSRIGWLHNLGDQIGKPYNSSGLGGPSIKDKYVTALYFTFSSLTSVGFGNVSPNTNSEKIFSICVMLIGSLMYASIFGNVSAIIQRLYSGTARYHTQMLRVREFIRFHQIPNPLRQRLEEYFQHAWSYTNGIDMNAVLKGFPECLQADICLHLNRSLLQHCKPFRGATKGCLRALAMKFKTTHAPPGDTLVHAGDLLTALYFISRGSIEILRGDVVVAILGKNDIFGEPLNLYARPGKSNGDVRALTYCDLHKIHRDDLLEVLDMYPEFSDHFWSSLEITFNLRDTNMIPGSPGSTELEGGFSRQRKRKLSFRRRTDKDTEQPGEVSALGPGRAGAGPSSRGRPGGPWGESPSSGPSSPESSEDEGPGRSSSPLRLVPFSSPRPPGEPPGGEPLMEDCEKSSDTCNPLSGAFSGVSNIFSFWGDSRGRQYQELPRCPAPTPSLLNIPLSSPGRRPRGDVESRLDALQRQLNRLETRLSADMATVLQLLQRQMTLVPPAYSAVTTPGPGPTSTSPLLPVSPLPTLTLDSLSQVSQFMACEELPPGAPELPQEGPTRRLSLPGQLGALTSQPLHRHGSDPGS

SMILES	hERG current change (%, negative = inhibition) at 10uM
Cc1c(C(=O)CN2CCN(c3ccccc3)CC2)c2ccccc2n1C	-2.34%
COc1ccc(C(=O)C(C)Sc2nnc(C3CC3)n2C2CC2)cc1 (centres unmarked)	-6.3%
CN(CC(=O)NCc1cccc(F)c1)C(=O)c1ccco1	0.0537%
C=CCNC(=S)NNC(=O)C(CCC(C)C)CC(C)(C)O (centres unmarked)	-5.72%
Cc1sc2nc(CSCC(=O)Nc3ccc(OC(F)F)cc3)[nH]c(=O)c2c1C	-42.8%
O=C(Nc1ccccc1Cl)c1ccccc1Cc1ccccc1	13.4%
CC(C)c1ccc(S(=O)(=O)N2CCN(C(=O)c3ccncc3)CC2)cc1	-22.8%
O=C(c1ccncc1)N(Cc1ccco1)Cc1cc2ccccc2[nH]c1=O	-43.5%
Cc1cccc(OCCNc2cc(N3CCN(CCO)CC3)ccc2[N+](=O)[O-])c1.Cl	-20.9%
O=C(Cn1cc([N+](=O)[O-])cn1)NCc1ccc(-n2cccn2)cc1	-19.7%
COCCCN(CCCN)Cc1ccco1	7.11%
CN(C)c1nc2n(c(=S)n1)CCS2	0.578%
CCn1c(SCC(=O)N/N=C/c2ccc(C)o2)nnc1-c1ccc(C(C)(C)C)cc1	-30.6%
Cc1cc(C)c(NC(=O)CO/N=C2\CCCc3nonc32)c(C)c1	9.13%
Cc1cc(C)cc(NC(=S)N2C3CCCC2CC(NC(=O)C2CC2)C3)c1 (centres unmarked)	-21.7%
CSc1nnnn1-c1ccc(C(=O)OCC(=O)N2CCOCC2)cc1	8.71%
Cc1ccc(S(=O)(=O)NCCC(=O)OCC(=O)N(C)c2ccccc2)cc1	4.35%
O=C(Cc1ccccc1)NC(c1ccco1)c1c(O)ccc2ccccc12 (centres unmarked)	5.51%
O=C(NC1CCCCC1)c1ccccc1NC(=O)C1CC1	-23.6%

SMILES	hERG current change (%, negative = inhibition) at 10uM
COC(=O)c1cc(OC)c(OC)cc1NC(=O)c1cc(-c2ccccc2)nc2ccccc12.Cl	-9.64%
C=C(C)Cc1c(C)c(C#N)c2nc3ccccc3n2c1NCCCN(C)C	-34.2%
COc1ccc(/C=N/S(=O)(=O)c2ccc(C)cc2)cc1	25.9%
O=[N+]([O-])c1ccc(O)c(/C=N/Nc2ccccn2)c1	12%
NC(=S)NNC(=O)COc1ccccc1O	7.21%
CCc1cccc(NC(=O)CN(c2ccc(C)cc2)S(=O)(=O)c2c(C)noc2C)c1	8.14%
Cc1cc(-c2ccccc2)cc(-c2ccccc2)[n+]1C.[Cl-]	-13.6%
CN(CC(O)COc1ccc(OCC(O)CN(C)C2CCCCC2)cc1)C1CCCCC1 (centres unmarked)	8.06%
CCOC(=O)c1ccc(NC(=O)Nc2cc(C)cc(C)n2)cc1	11.5%
O=C(Cc1cccs1)N/N=C/C(Br)=C/c1ccccc1	10.1%
Cc1ccc(S(=O)(=O)N2CCN(S(C)(=O)=O)C2)cc1	9.11%
CCOC(=O)c1oc2ccccc2c1COC(=O)CNC(=O)c1cccc(C)c1	3.66%
COc1cc(NC(=O)CSCc2ccc(Cl)cc2Cl)c(C(=O)O)cc1OC	11.2%
O=C(NCc1ccccc1C(F)(F)F)C1CC(c2ccccc2C(F)(F)F)=NO1 (centres unmarked)	-9.21%
COc1cccc(C(C(=O)NCC2CCCO2)N(C(=O)Cn2nnc3ccccc32)c2ccc(NC(C)=O)cc2)c1 (centres unmarked)	21.9%
Cc1ccc(-c2c(C)nn3c(N4CCOCC4)cc(C)nc23)cc1	12%
CCCCCNC(=O)CC1Nc2c3ccccc3nc(=S)n2C1=O (centres unmarked)	-0.562%
COc1ccc(NC(=O)CN(Cc2ccco2)Cc2ccco2)cc1S(=O)(=O)N1CCCCC1	-31.4%
NCCCC[C@@H]1NC(=O)c2cc([N+](=O)[O-])cc(I)c2SC[C@@H](C(=O)NCC(N)=O)NC(=O)CNC1=O	10.2%

SMILES	hERG current change (%, negative = inhibition) at 10uM
COC(=O)C1=C(COc2ccc(F)cc2)NC(=O)NC1c1ccc(C)cc1C (centres unmarked)	-12.1%
CC(C)(C)c1nc(N2CCN(C(=O)c3ccco3)CC2)c2nnn(Cc3ccccc3Cl)c2n1	11.7%
O=C(CSc1nc(COc2ccccc2)nc2ccccc12)NC1CCCC1	-15.5%
Cc1ccc(Cn2nc(C)cc2C(=O)Nc2ccccc2Cl)cc1	13.2%
O=C(c1cc2cc3ccc(Cl)cc3nc2o1)N1CCCCCC1	0.782%
OCCC1CN(Cc2nc3ccccc3s2)CCN1CCc1ccccc1 (centres unmarked)	-77.7%
COC(=O)N1CC(c2ccccc2)CC1=O (centres unmarked)	9.18%
CCOC(=O)CSc1nc2ccccc2c(=O)n1CC1CCC(C(=O)NCc2ccco2)CC1 (centres unmarked)	-18.9%
C[C@@H](C(=O)Nc1cccnc1)n1c(=O)[nH]c2ccccc2c1=O	12.9%
CCCc1nc(SCC(=O)N2CCOCC2)c2c(C)c(C)sc2n1	-26.1%
CN(C)C(=O)CSc1ccc(S(=O)(=O)N2CCOCC2)cn1	10.6%
COC(=O)c1ccc(COc2ccc(-c3nn[nH]n3)cc2)cc1	-0.804%
CCOC(=O)C1CCN(C(=O)COC(=O)c2oc3ccc(OC)cc3c2C)CC1	-55.6%
CC(=O)c1ccc(-n2c(C)c(C(C)=O)c3cc(O)ccc32)cc1	8.94%
CCc1c(C)sc(NC(=O)c2cccs2)c1C#N	-1.68%
CCOC(=O)c1c(CSc2ccccc2)oc2cc(Br)c(O)c(CN(C)C)c12.Cl	8.53%
Cc1ccc(-c2cc(C(=O)Nc3nn[nH]n3)c3ccccc3n2)c(C)c1	1.91%
Cc1ccc2c(=O)oc(N(C)C)nc2c1	4.34%
